From PubChem BioAssay AID1030 (National Center for Advancing Translational Sciences (NCATS), 2008)
The whole screen tested about 220,000 compounds, of which about 16,000 (7.3%) were called active. The inconclusive results got no clear call from the source; some entries with a clear call stand among them for comparison. Calls follow the shape of the dose curve; as a rule, active = well fitted inhibition curve with a large enough effect (not every such curve was filed as active); inconclusive = small, poorly fitted or top-dose-only effect, or another doubt; inactive = no such curve, though single readings can be large or run the other way. Potencies of inconclusive entries are left out as doubtful fits.

target: Aldehyde dehydrogenase 1A1 (Homo sapiens) (UniProt P00352); assay: qHTS Assay for Inhibitors of Aldehyde Dehydrogenase 1 (ALDH1A1); conditions: Purified ALDH1A1, NADH fluorescence, propionaldehyde substrate; series mostly up to 75.3 µM
Potency is read from the fitted curve at half-maximal effect; tags tell the direction and shape of the fitted curve.

UniProt P00352, sequence (P00352 whole entry, looked up): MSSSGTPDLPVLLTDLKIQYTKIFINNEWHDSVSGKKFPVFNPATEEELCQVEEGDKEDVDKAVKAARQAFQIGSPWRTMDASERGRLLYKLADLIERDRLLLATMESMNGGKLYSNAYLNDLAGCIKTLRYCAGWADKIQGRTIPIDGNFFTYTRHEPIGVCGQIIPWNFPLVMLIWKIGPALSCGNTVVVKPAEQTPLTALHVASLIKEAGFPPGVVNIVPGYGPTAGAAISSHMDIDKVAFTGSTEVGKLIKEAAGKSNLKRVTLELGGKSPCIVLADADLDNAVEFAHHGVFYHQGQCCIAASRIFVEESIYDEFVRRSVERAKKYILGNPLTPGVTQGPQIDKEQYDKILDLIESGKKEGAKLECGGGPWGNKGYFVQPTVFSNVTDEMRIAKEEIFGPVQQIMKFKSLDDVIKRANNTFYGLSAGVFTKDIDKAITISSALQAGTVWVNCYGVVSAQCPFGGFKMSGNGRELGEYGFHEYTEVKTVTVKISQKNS

Structure (SMILES)	Potency
CCN(CC)S(=O)(=O)c1cc([N+](=O)[O-])ccc1NNC(=O)Nc1ccccc1OC	inconclusive [inhibitor, single point]
CNC(=O)c1cc2c(ccc3ccccc32)o1	inconclusive [inhibitor, single point]
O=C(c1ccco1)N1CCC[C@@]2(CCN(Cc3nccs3)C2)C1	active: 25.1 µM
COC(=O)c1cc(NC(=O)CCc2c(C)nc3ncnn3c2C)cc(C(=O)OC)c1	inconclusive [inhibitor, single point]
CC(C)c1nc2sc3c(=O)[nH]c(=S)[nH]c3c2c2c1CCC2	inconclusive [inhibitor, single point]
CSC(=NS(=O)(=O)c1ccccc1)SC	inconclusive [inhibitor, single point]
Cc1ccc2[nH]c(C)cc(=S)c2c1	active: 17.8 µM
CC(C)CCOCC(=O)Oc1ccccc1C(=O)O	inconclusive [inhibitor, single point]
O=C(COC(=O)c1ccc2c(c1)S(=O)(=O)N=C1CCCCCN12)NCCc1ccc(F)cc1	inconclusive [inhibitor, partial curve]
CCc1ccc(-c2nc(CS(=O)CC(=O)NCc3cccnc3)c(C)o2)cc1 (stereo not given)	inconclusive [inhibitor, single point]
CCN(c1ccccc1)S(=O)(=O)c1ccc(NC(=S)NC(=O)c2cccs2)cc1	active: 6.31 µM
CC1CCCC(C)N1C(=O)COc1ccc(C(=O)Nc2ccccc2N2CCOCC2)cc1 (stereo not given)	inactive
CCOC(=O)Cc1cnc(NC(=O)c2ccccc2)s1	inconclusive [inhibitor, single point]
COC(=O)c1ccc(/C=N\n2c(C)nnc2C)cc1	inconclusive [inhibitor, single point]
O=C(CSC1=NC(=O)C(c2ccccc2)C(=O)N1)Nc1ccccc1[N+](=O)[O-] (stereo not given)	inconclusive [inhibitor, single point]
CC[C@@H]1/C=C(\C)C[C@H](C)C[C@H](OC)[C@H]2O[C@@](O)(C(=O)C(=O)N3CCCC[C@H]3C(=O)O[C@H](/C(C)=C/[C@@H]3CC[C@@H](O)[C@H](OC)C3)[C@H](C)[C@@H](O)CC1=O)[C@H](C)C[C@@H]2OC	inactive
Cc1ccc(NC(=O)CN(C)S(=O)(=O)c2cccc3cccnc23)cc1	inconclusive [inhibitor, partial curve, poor fit]
CCOC(=O)c1ccc(N/C=C2\CCCCC2=O)cc1	inconclusive [inhibitor, single point]
Cc1ccc(-c2nc3ncccn3c2Nc2ccc3c(c2)OCCO3)o1	inconclusive [inhibitor, partial curve]
O=C(Nc1ccccc1)Nc1ccc2snnc2c1	inconclusive [inhibitor, single point]
COc1cc2c(cc1OC)-c1cc(OCc3cccnc3)nc(=O)n1CC2	inconclusive [inhibitor, partial curve]
CC(C)(C)c1ccc(C(=O)Nc2ccccc2Cl)cc1	inconclusive [inhibitor, single point]
Cc1ccc(S(=O)(=O)N2CCN(C)CC2)cc1-c1nnc2c3ccccc3c(C)nn12	inconclusive [inhibitor, single point]
C=CCn1c(SCC(=O)NCc2ccco2)nc2sc3c(c2c1=O)CCC3	inconclusive [inhibitor, partial curve]

Structure (SMILES)	Potency
CCN(CC)S(=O)(=O)c1ccc(NC(=O)Nc2cccc(C(F)(F)F)c2)cc1	inactive
Cc1ccc(C(=O)NC(=S)Nc2cccc3c(C)cc(C)nc23)cc1	inconclusive [inhibitor, single point]
CCOC(=O)c1cc2c(ccn2C)n1Cc1ccccc1Cl	inconclusive [inhibitor, single point]
CCC(=O)NC(NC(=S)Nc1cccc2cccnc12)C(Cl)(Cl)Cl (stereo not given)	inconclusive [inhibitor, single point]
COc1ccc2oc(C(=O)OCc3c(C)noc3C)c(C)c2c1	inconclusive [inhibitor, partial curve]
Cn1c(CSc2nc3ccccc3s2)n[nH]c1=S	inconclusive [inhibitor, single point]
COc1ccc(CC(=O)Nc2ccc(-c3nc4cc(C)ccc4o3)c(O)c2)cc1OC	inconclusive [inhibitor, partial curve]
C=CCNCC(=O)N1N=C(c2ccc3ccccc3c2)CC1c1ccc(OC)cc1 (stereo not given)	inconclusive [inhibitor, single point]
Cc1cc(C)c2nc(N3CCC(C(=O)N4CCN(C(=O)c5ccco5)CC4)CC3)sc2c1	active: 12.6 µM
O=c1cc(-c2ccc(O)cc2)oc2cc(O)ccc12	inconclusive [inhibitor, partial curve]
O=S(=O)(N/N=C/c1ccc2c(c1)OCCO2)c1ccccc1	inconclusive [inhibitor, single point]
Cc1ccc(S(=O)(=O)c2nc(N3CCOCC3)sc2Cl)cc1	inconclusive [inhibitor, single point]
CCc1ccc2[nH]c(=O)c(CN(CCN(C)C)C(=S)NCc3ccco3)cc2c1	inconclusive [inhibitor, single point]
O=C(NCc1ccco1)c1cc(-c2cccs2)nc2ccccc12	inconclusive [inhibitor, partial curve]
CC(=O)Nc1ccc(/C=N/NC(=O)c2cc(-c3ccco3)nc3ccccc23)cc1	inconclusive [inhibitor, partial curve]
Cc1c(C)[n+](=O)c(-c2ccco2)c(C)n1[O-]	active: 25.1 µM
Cc1ccccc1/[N+]([O-])=C/c1cccs1	inconclusive [inhibitor, single point]
O=c1oc2ccccc2c(O)c1/C=N/c1ncccn1	inconclusive [inhibitor, partial curve]
O=C(Nc1cc2c(ccc3ccccc32)oc1=O)C1CCCCC1	inconclusive [inhibitor, full curve]
O=C(c1ccco1)N1CCN(C(=O)N2CCCCC2)CC1	inconclusive [inhibitor, partial curve]
COc1ccc(C2N(c3ccc(Cl)cc3)N=C(C(C)=O)N(C)N2C(C)=O)cc1 (stereo not given)	inactive
C=CCc1c(NCCO)nc(C)[nH]c1=O	inconclusive [inhibitor, single point]
Cc1ccc(S(=O)(=O)/N=S(/c2ccccc2)C(C)C)cc1 (stereo not given)	active: 18.9 µM
CCc1ccc(Nc2ncc3c(n2)CC(c2ccco2)CC3=O)cc1 (stereo not given)	inconclusive [inhibitor, partial curve]

Structure (SMILES)	Potency
CCOC(=O)c1c(-c2cccs2)csc1N	inconclusive [inhibitor, single point]
CC(=O)c1ccc(-c2nc3ccccc3n2C)o1	inconclusive [inhibitor, partial curve]
Cc1ccccc1NC(=O)/C(C#N)=C\c1cn(CC(=O)O)c2ccccc12	inactive
Cc1ccc(NC(=O)CSCc2n[nH]c(=O)[nH]2)c(Br)c1	inactive
O=C(Nc1nc2ccc(F)cc2s1)c1cccs1	inactive
COc1ccc(C(=O)NCC(=O)N/N=C/C(C)=C/c2ccccc2)cc1OC	inconclusive [inhibitor, partial curve]
C/C(=C\C(=O)c1ccncc1)Nc1ccccc1O	inactive
CCN1CCN(CCOc2ccc(Cl)cc2)CC1	inconclusive [inhibitor, partial curve]
COc1ccccc1-c1ccc2ncnc(NCc3ccccc3)c2c1	inconclusive [inhibitor, single point]
Cc1ncc(CSc2nnnn2-c2ccccc2)c(N)n1	inconclusive [inhibitor, single point]
c1ccc(-c2nnc(SCc3nnc(-c4cccs4)o3)o2)cc1	inconclusive [inhibitor, single point]
O=C(O)c1cccnc1C(=O)O	inactive
COc1c(F)c(F)c(C(=O)O)c(Nc2ccc(C)cc2C)c1F	inactive
O=C(Nc1nccs1)c1ccc(NC(=O)C2CC=CCC2C(=O)O)cc1 (stereo not given)	active: 3.98 µM
CCc1ccc(Nc2nnc(SCC(=O)NC(=O)c3cccn3C)s2)cc1	inconclusive [inhibitor, single point]
Cc1ccc(-c2csc3ncnc(-n4nc(C)cc4N)c23)cc1	active: 2 µM
Cc1cc(NC(=O)COc2cccc3cccnc23)no1	inconclusive [inhibitor, single point]
CC(=O)c1cc(NC(=O)c2ccc(C)cc2)c(=O)oc1C	active: 22.4 µM
CC(=O)n1c2ccccc2c2nc(NC(C)C)sc21	inconclusive [inhibitor, single point]
COc1ccc(C2CC(c3ccccc3)=NN2C(=O)COC(=O)c2ccc(Cl)nc2)cc1 (stereo not given)	inconclusive [inhibitor, single point]
COCC(C)NCC(=O)NC(C)CCc1ccccc1 (stereo not given)	inconclusive [inhibitor, partial curve]
C(=C\c1ccccc1)/C=N/Nc1nncc(-c2ccccc2)n1	inactive
